Reference: PubChem BioAssay AID360 (National Center for Advancing Translational Sciences (NCATS), 2006)
The whole screen tested about 48,000 compounds, of which about 550 (1.1%) were called active. Inconclusive results (about 4%) are left out. Rule as the data show it: active = potency below about 15 µM; inconclusive = mostly about 16 µM to 33 µM; inactive = weaker than that. The list shows a part of the results.

biological target: Lysosomal acid glucosylceramidase (Homo sapiens) (UniProt P04062); test: Glucocerebrosidase; conditions: purified enzyme, resorufin glucoside fluorescence (screen aimed at inhibitors), 20 min;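 also: the screen sought inhibitors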
Method in brief: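 Normal human glucocerebrosidase (0.2 nM final) was assayed with resorufin β-D-glucopyranoside (30 uM final) in 50mM citric acid/KH2PO4, 10mM sodium taurocholate, 0.01% tween-20, pH 5.9. Compounds were titrated; fluorescence (Ex 548, Em 600) read after 20 min at RT.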
Potency is read from the fitted curve at half-maximal effect.

UniProt P04062, sequence (P04062 whole entry, looked up): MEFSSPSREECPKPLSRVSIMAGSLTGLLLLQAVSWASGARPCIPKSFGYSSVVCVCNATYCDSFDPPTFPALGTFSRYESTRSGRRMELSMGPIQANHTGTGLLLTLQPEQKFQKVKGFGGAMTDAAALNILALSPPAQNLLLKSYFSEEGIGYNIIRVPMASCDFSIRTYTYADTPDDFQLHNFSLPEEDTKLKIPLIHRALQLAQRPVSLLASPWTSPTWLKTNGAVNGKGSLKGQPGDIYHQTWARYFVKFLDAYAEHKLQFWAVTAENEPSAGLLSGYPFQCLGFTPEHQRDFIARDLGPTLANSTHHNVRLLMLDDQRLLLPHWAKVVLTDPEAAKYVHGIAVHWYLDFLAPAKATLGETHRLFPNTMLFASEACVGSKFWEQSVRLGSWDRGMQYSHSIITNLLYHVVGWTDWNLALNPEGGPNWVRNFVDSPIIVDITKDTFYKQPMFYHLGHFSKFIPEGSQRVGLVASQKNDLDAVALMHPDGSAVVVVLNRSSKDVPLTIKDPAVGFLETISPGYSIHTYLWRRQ

**Q.** Which Potency does the source give for `Cc1ccc(SCc2cc(=O)n3[nH]c(C)nc3n2)cc1` here?
**A.** Its Potency is inactive: > 76.9 µM.

**Q.** `CCOC(=O)C1CCN(c2c(NCc3ccc(C(=O)NCCC(C)C)cc3)c(=O)c2=O)CC1` was tested. Which Potency did it give?
**A.** Its Potency is inactive: > 76.9 µM.

**Q.** With `Cc1ccc(Cn2c(CN3CCOCC3)nc3c2c(=O)[nH]c(=O)n3C)cc1` as the molecule, how does the Potency read?
**A.** The Potency was inactive: > 76.9 µM.

**Q.** How did the Potency turn out when `CCOc1ccc(OCC)c(NC(=O)C2CCN(S(=O)(=O)c3c(C)noc3C)CC2)c1` was run?
**A.** The Potency was inactive: > 76.9 µM.

**Q.** How did the Potency turn out when `O=C(CCNC(=O)Cn1cnc2ccccc2c1=O)NCCC1=CCCCC1` was run?
**A.** The Potency was inactive: > 76.9 µM.

**Q.** How did the Potency turn out when `CCOC(=O)N1CCN(S(=O)(=O)c2cccs2)CC1` was run?
**A.** Its Potency is inactive: > 76.9 µM.

**Q.** `CCOC(=O)CSc1nnc(Cn2nnc(-c3ccccc3)n2)n1CC` was tested. Which Potency did it give?
**A.** Its Potency is inactive: > 76.9 µM.

**Q.** With `Cc1ccc(NC(=O)CN(c2ccccc2F)S(C)(=O)=O)cc1` as the molecule, how does the Potency read?
**A.** The Potency was inactive: > 76.9 µM.

**Q.** With `COC(=O)c1ccccc1Nc1ccccc1` as the molecule, how does the Potency read?
**A.** The Potency was inactive: > 76.9 µM.

**Q.** For `COc1ccc(Cc2nnc3c4cnn(C)c4ncn23)cc1`, which Potency is on record?
**A.** Its Potency is inactive: > 76.9 µM.

**Q.** How did the Potency turn out when `CN1C(=S)SC(/[N+]([O-])=C\c2ccco2)C1(C)C` (configuration not stated) was run?
**A.** The Potency was inactive: > 76.9 µM.

**Q.** For `COc1cccc(NS(=O)(=O)c2ccc(OC)c(OC)c2)c1`, which Potency is on record?
**A.** The Potency was inactive: > 76.9 µM.

**Q.** `COCCCNc1nc2ccccc2nc1NS(=O)(=O)c1cccs1` was tested. Which Potency did it give?
**A.** The Potency was inactive: > 76.9 µM.

**Q.** For `Cn1c(=O)c2c(nc(SCc3cccnc3)n2Cc2ccccc2)n(C)c1=O`, which Potency is on record?
**A.** The Potency was inactive: > 76.9 µM.

**Q.** How did the Potency turn out when `CCCCN(CCCNC(=O)C1CCN(S(=O)(=O)CC)CC1)c1ccccc1` was run?
**A.** The Potency was “inactive”.

**Q.** `CCn1nnc(-c2ccccc2NC(=O)c2cccc(-n3cnnn3)c2)n1` was tested. Which Potency did it give?
**A.** Its Potency is inactive: > 76.9 µM.

**Q.** With `O=C(c1ccco1)N1CCN(C(=O)c2snc3ccc(Cl)cc23)CC1` as the molecule, how does the Potency read?
**A.** Its Potency is inactive: > 76.9 µM.

**Q.** With `CC1(C)C2CCC1(CS(=O)(=O)N1CCCc3ccccc31)C(=O)C2` (configuration not stated) as the molecule, how does the Potency read?
**A.** Its Potency is inactive: > 76.9 µM.

**Q.** `Cc1cccc(-n2c(SCC(=O)N3CCCC3)nnc2-c2ccccn2)c1C` was tested. Which Potency did it give?
**A.** The Potency was inactive: > 76.9 µM.

**Q.** For `C=CCN1C(=Nc2ccccc2)SC/C1=C\C(=O)OC`, which Potency is on record?
**A.** The Potency was inactive: > 76.9 µM.

**Q.** `COc1ccc2[nH]c(=O)c(CN(CCO)S(=O)(=O)c3ccc4c(c3)OCCO4)cc2c1` was tested. Which Potency did it give?
**A.** The Potency was inactive: > 76.9 µM.

**Q.** With `O=C(OCc1ccccc1)c1ccc(Br)o1` as the molecule, how does the Potency read?
**A.** The Potency was inactive: > 76.9 µM.

**Q.** For `CCC(=O)Nc1cccc(-c2nc3ccccc3o2)c1`, which Potency is on record?
**A.** The Potency was inactive: > 76.9 µM.

**Q.** With `Cn1c(=O)c(NC(=O)c2ccccc2)c2n(c1=S)CCCCC2` as the molecule, how does the Potency read?
**A.** Its Potency is inactive: > 76.9 µM.

**Q.** How did the Potency turn out when `CN(C)c1ccc(-c2nnn(Cc3ccccc3Br)n2)cc1` was run?
**A.** Its Potency is inactive: > 76.9 µM.

**Q.** For `CC(=O)Nc1cccc(OCC(=O)Nc2ccc(F)cc2)c1`, which Potency is on record?
**A.** The Potency was inactive: > 76.9 µM.

**Q.** Which Potency does the source give for `O=C(CSc1nnc(-c2ccccc2)n1Cc1ccco1)Nc1ccc2c(c1)OCCO2` here?
**A.** The Potency was inactive: > 76.9 µM.

**Q.** How did the Potency turn out when `O=C(c1cccs1)N(Cc1ccccn1)Cc1ccco1` was run?
**A.** The Potency was inactive: > 76.9 µM.

**Q.** For `O=C(Cc1ccccc1)Nc1ccc2oc(-c3ccncc3)nc2c1`, which Potency is on record?
**A.** Its Potency is inactive: > 76.9 µM.

**Q.** For `Cc1cnc(NC(=O)COc2ccccc2Cl)s1`, which Potency is on record?
**A.** The Potency was inactive: > 76.9 µM.

**Q.** For `CCOC(=O)c1c(NC(=O)CSc2nnnn2-c2ccc3c(c2)OCCO3)sc(C)c1C`, which Potency is on record?
**A.** Its Potency is inactive: > 76.9 µM.

**Q.** With `CCOC(=O)CNC(=O)CSc1nc(C)cc(C)c1C#N` as the molecule, how does the Potency read?
**A.** The Potency was inactive: > 76.9 µM.

**Q.** With `COC(=O)CN(n1cnnc1)S(=O)(=O)c1ccc(C)cc1` as the molecule, how does the Potency read?
**A.** The Potency was inactive: > 76.9 µM.

**Q.** `Cc1cc(C(=O)NCc2ccccc2F)cs1` was tested. Which Potency did it give?
**A.** The Potency was inactive: > 76.9 µM.

**Q.** For `CCn1c(SCCC(=O)Nc2ccccc2)nnc1-c1ccc(OC)cc1`, which Potency is on record?
**A.** Its Potency is inactive: > 76.9 µM.

**Q.** With `CCOc1cccc(Oc2ccc(C(F)(F)F)cn2)c1` as the molecule, how does the Potency read?
**A.** The Potency was inactive: > 76.9 µM.

**Q.** `Cc1cccc(-n2ncc3c(NCc4cccs4)ncnc32)c1` was tested. Which Potency did it give?
**A.** The Potency was active: 14.5 µM.

**Q.** With `Cc1ccc(-c2cc(C(=O)NCc3cccs3)no2)cc1` as the molecule, how does the Potency read?
**A.** Its Potency is inactive: > 76.9 µM.

**Q.** With `COC(=O)C1(C(=O)OC)Sc2ccccc2C1=O` as the molecule, how does the Potency read?
**A.** Its Potency is inactive: > 76.9 µM.

**Q.** For `O=C(CSc1nnc2scc(-c3ccccc3)n12)NCC1CCCO1` (configuration not stated), which Potency is on record?
**A.** Its Potency is inactive: > 76.9 µM.

**Q.** Which Potency does the source give for `Nc1ncc2c(n1)CC(c1ccco1)CC2=O` (configuration not stated) here?
**A.** Its Potency is inactive: > 76.9 µM.

**Q.** `OC1(c2cccnc2)CCN(Cc2nnnn2C2CCCCC2)CC1` was tested. Which Potency did it give?
**A.** The Potency was inactive: > 76.9 µM.

**Q.** Which Potency does the source give for `CCOC(=O)c1ccc(NC(=O)Nc2c(C)nn(C)c2C)cc1` here?
**A.** The Potency was inactive: > 76.9 µM.

**Q.** Which Potency does the source give for `O=C(CCC1(C(=O)O)CCC(=O)NC1)NCc1ccccc1` (configuration not stated) here?
**A.** Its Potency is inactive: > 76.9 µM.

**Q.** Which Potency does the source give for `CC(C)N1C(=O)CCC1C(=O)N1CCCc2ccccc21` (configuration not stated) here?
**A.** The Potency was inactive: > 76.9 µM.

**Q.** How did the Potency turn out when `Cc1ccc(S(=O)(=O)N(C)Cc2nc(-c3ccccn3)no2)cc1` was run?
**A.** The Potency was inactive: > 76.9 µM.

**Q.** How did the Potency turn out when `Cc1cc(C)c(C(=O)CC2(O)C(=O)Nc3ccccc32)cc1C` (configuration not stated) was run?
**A.** The Potency was inactive: > 76.9 µM.
